In the supplement of paper PMC4166925:
± gives the standard deviation of the averaged measurements. In all, about 33,000 sequences were measured (“E-score (dimensionless, -0.5 to 0.5)”: median about -0.046, highest 2% from about 0.36 on). The list shows a part of the results.

system: T1, SpTbr T-box DNA-binding domain (GST fusion); test: PBM E-score of 8-mer (E-score (dimensionless, -0.5 to 0.5)); Tbr is Tbrain of the sea star Patiria miniata (Pm) or the sea urchin Strongylocentrotus purpuratus (Sp); higher = stronger binding preference; most listed sequences are background and not binding sites; conditions: the construct has about 5 more residues each side
T1 sequence: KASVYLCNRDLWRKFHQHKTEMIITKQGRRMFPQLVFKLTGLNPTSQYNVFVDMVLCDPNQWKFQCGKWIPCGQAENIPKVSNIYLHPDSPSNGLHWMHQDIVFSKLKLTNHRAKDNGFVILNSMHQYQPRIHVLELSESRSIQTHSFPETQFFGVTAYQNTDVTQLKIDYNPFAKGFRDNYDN
Summary of the method: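 Each ungapped 8-mer received an enrichment E-score from the Universal PBM Analysis Suite, averaged over duplicate arrays. The proteins were Tbr T-box DNA-binding domains, covering the whole T-box plus about five flanking residues, fused to GST and expressed in BL21 E. coli at 20 °C before glutathione affinity purification. Universal Agilent oligonucleotide arrays were made double-stranded by primer extension and incubated with 200 nM protein in PBS (pH 7.5). The arrays were then scanned and quantified, and every 8-mer was scored from probe intensities.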

| Sequence | PBM E-score of 8-mer |
| --- | --- |
| ACCGAAAC | -0.177 ± 0.013 |
| TCCAACGA | -0.0598 ± 0.029 |
| CTTAGGGC | -0.131 ± 0.082 |
| AACGGGAT | -0.0959 ± 0.041 |
| CTATAAAC | 0.0111 ± 0.085 |
| CTACGCCC | 0.0782 ± 0.051 |
| TAGTTCGA | 0.0266 ± 0.032 |
| CCACCAGG | -0.177 ± 0.03 |
| AGTAGGGC | -0.176 ± 0.079 |
| ACCCTTTG | -0.0807 ± 0.0087 |
| CGTTTTAC | -0.0232 ± 0.013 |
| GTGAGTAA | 0.322 ± 0.01 |
| ATTAAATC | -0.101 ± 0.069 |
| GTATAATA | -0.213 ± 0.015 |
| ATTGATTA | -0.064 ± 0.063 |
| ACGTCGCC | -0.0779 ± 0.04 |
| ACCGGGGG | -0.234 ± 0.024 |
| GTCCTAAA | -0.184 ± 0.013 |
| TACAGGCA | 0.0297 ± 0.032 |
| GTGTACAC | 0.242 ± 0.0066 |
| AGGGCATA | -0.16 ± 0.053 |
| CGTGTTAC | 0.308 ± 0.0063 |
| GACGTAGA | 0.0341 ± 0.018 |
| CAATGTAG | -0.0397 ± 0.05 |
| AGGTCACC | -0.0256 ± 0.013 |

| Sequence | PBM E-score of 8-mer |
| --- | --- |
| AGCCAGAG | -0.161 ± 0.047 |
| AGATCATG | -0.227 ± 0.0063 |
| ACGCCGGG | -0.0203 ± 0.0055 |
| ACCCAGCT | -0.0857 ± 0.026 |
| CCTGTCTC | 0.0231 ± 0.012 |
| AAGTGCAC | -0.0937 ± 0.032 |
| AATAATAC | -0.0651 ± 0.0048 |
| ACACGCTA | 0.0841 ± 0.042 |
| GCGACTTA | 0.154 ± 0.032 |
| AGTCATGA | -0.109 ± 0.058 |
| CTCCGTAC | -0.139 ± 0.029 |
| CGATAAAG | 0.143 ± 0.079 |
| ACAGGTAC | 0.00426 ± 0.058 |
| TATCAGGA | -0.0449 ± 0.058 |
| CAAACATC | 0.176 ± 0.051 |
| AAATAGTT | -0.0928 ± 0.01 |
| AACGCGCC | 0.1509 ± 0.0013 |
| GCGGACGC | 0.0321 ± 0.12 |
| CCCATTGC | -0.103 ± 0.035 |
| CTCGACTC | 0.0204 ± 0.0078 |
| GAAATTCC | -0.176 ± 0.0039 |
| ATGGTAAG | -0.0113 ± 0.029 |
| ACCTACAA | 0.0136 ± 0.0088 |
| CACCCTAA | 0.1804 ± 0.0016 |
| GCGCTCAA | 0.0989 ± 0.038 |

| Sequence | PBM E-score of 8-mer |
| --- | --- |
| GGATGGAC | -0.203 ± 0.0084 |
| CATTCTGA | -0.204 ± 0.019 |
| ACAGTTCA | 0.173 ± 0.014 |
| ATCACTGC | 0.0129 ± 0.11 |
| CGCCTCCA | 0.167 ± 0.03 |
| GAACGATC | 0.0814 ± 0.028 |
| TCACTGGA | -0.00987 ± 0.067 |
| CTACCCGC | -0.0691 ± 0.055 |
| CCTCCCGA | -0.0234 ± 0.02 |
| GTCTGTAA | -0.144 ± 0.057 |
| AGTTAAAC | -0.1689 ± 0.00067 |
| AACCATGC | 0.0276 ± 0.05 |
| ACGGCCAG | 0.0753 ± 0.013 |
| AAAGTCAA | -0.103 ± 0.025 |
| GGCCCAAC | -0.285 ± 0.001 |
| GCTCTGAC | -0.176 ± 0.068 |
| ACCACATG | -0.0493 ± 0.04 |
| CCGGAACA | -0.106 ± 0.066 |
| TAAATGAA | -0.182 ± 0.0097 |
| ACTTAGGC | -0.0887 ± 0.014 |
| ACCCCGTC | 0.077 ± 0.024 |
| CTGCCAAC | 0.0901 ± 0.035 |
| GATCACAC | 0.479 ± 0.01 |
| AGGGTTTC | -0.0336 ± 0.067 |
| GCTGTCAC | 0.326 ± 0.025 |

| Sequence | PBM E-score of 8-mer |
| --- | --- |
| CGGTTCCA | -0.0579 ± 0.021 |
| CACTCTAG | 0.245 ± 0.013 |
| CCCGGAGG | -0.191 ± 0.009 |
| AGAACGGG | -0.0463 ± 0.052 |
| CTGAAAAA | -0.104 ± 0.011 |
| CCTTATTC | -0.177 ± 0.019 |
| ACAACGTA | 0.02 ± 0.0086 |
| ACACCGCC | 0.231 ± 0.084 |
| AAATCAAT | 0.0618 ± 0.14 |
| CGGCCCCG | -0.222 ± 0.033 |
| AGGGTTAC | -0.0534 ± 0.021 |
| CTATCTAA | -0.0546 ± 0.0069 |
| GCAGGCAA | -0.206 ± 0.0059 |
| AGTCCAGG | -0.396 ± 0.039 |
| CAACCGCG | 0.131 ± 0.081 |
| AACAAGAT | -0.0261 ± 0.082 |
| CGATGCAC | -0.00911 ± 0.047 |
| AGCTAGAT | -0.241 ± 0.057 |
| ATAGGAGA | -0.311 ± 0.047 |
| GGCCGTAA | -0.17 ± 0.077 |
| CCCCTTGA | -0.112 ± 0.0033 |
| TAGGTTCA | 0.011 ± 0.035 |
| ATCCACAC | 0.357 ± 0.0097 |
| TACTTCCA | -0.235 ± 0.062 |
| AAGTGTCG | 0.425 |

| Sequence | PBM E-score of 8-mer |
| --- | --- |
| CGTCGGTC | -0.133 ± 0.094 |
| ACTAATCG | -0.0161 ± 0.022 |
| GAGCACGA | -0.0386 ± 0.024 |
| CGCGCTAG | 0.173 ± 0.0095 |
| GATGATCA | 0.0806 ± 0.0036 |
| GCCATACA | 0.0428 ± 0.016 |
| ACTAGGGG | 0.0152 ± 0.12 |
| TGCCTACA | -0.024 ± 0.044 |
| GTGGTTAA | 0.036 ± 0.034 |
| GCGGGGAC | -0.129 ± 0.046 |
| AGGTATAA | -0.00898 ± 0.069 |
| CGTCGTGC | 0.0141 ± 0.056 |
| AATGTAAA | 0.0264 ± 0.02 |
| GTTAGCTA | -0.0435 ± 0.003 |
| CCGGAATA | -0.12 ± 0.087 |
| GTTAAGCA | 0.0224 ± 0.05 |
| GCAGACAC | 0.131 ± 0.042 |
| ATCAAATG | 0.008 ± 0.06 |
| AGAATGCA | -0.122 ± 0.044 |
| CGGCATGC | -0.0842 ± 0.0098 |
| CACGGCGG | -0.0101 ± 0.054 |
| CTATACGA | 0.0571 ± 0.0064 |
| ACCTATCA | 0.0614 ± 0.042 |
| ACCTAGTA | 0.0398 ± 0.046 |
| AAGATAAG | -0.281 ± 0.022 |

| Sequence | PBM E-score of 8-mer |
| --- | --- |
| TTCTGCAA | -0.186 ± 0.066 |
| ATATGCTC | -0.0266 ± 0.015 |
| ATACGCAT | -0.0848 ± 0.0017 |
| CCTGGTCA | 0.0238 ± 0.0064 |
| AGATCGTG | 0.0588 ± 0.023 |
| AAGGCCCA | -0.0598 ± 0.008 |
| CACGCATG | 0.159 ± 0.012 |
| AATCATCT | 0.0537 ± 0.035 |
| CCCCCAGC | -0.196 ± 0.012 |
| CATACCGA | -0.184 ± 0.069 |
| AGACCTGC | -0.0155 ± 0.0084 |
| AACCGAAA | -0.221 ± 0.047 |
| AAGACTTA | -0.0855 ± 0.021 |
| AGTCTGCC | -0.314 ± 0.022 |
| GGTCCCAA | -0.129 ± 0.072 |
| CGACTGGA | -0.194 ± 0.051 |
| AAGCAGGA | -0.141 ± 0.0083 |
| CCATATGG | -0.265 ± 0.041 |
| GGCCTTAA | -0.109 ± 0.056 |
| TCTGCCAA | -0.106 ± 0.12 |
| GGGCTGTA | -0.17 ± 0.011 |
| TACCGGTA | -0.213 ± 0.083 |
| AGACGATA | -0.0509 ± 0.047 |
| AATGCGGA | -0.0358 ± 0.016 |
| CTGAGTCA | -0.113 ± 0.031 |

| Sequence | PBM E-score of 8-mer |
| --- | --- |
| AACCAAGT | 0.0491 ± 0.025 |
| ATGTGACC | 0.169 ± 0.046 |
| ATGAGAGA | -0.216 ± 0.018 |
| CAGAGTGC | 0.031 ± 0.031 |
| AGCCTCTA | -0.0268 ± 0.03 |
| CCCACCCC | 0.182 ± 0.068 |
| ACATCTTG | -0.0309 ± 0.0017 |
| AGATATTC | -0.243 ± 0.033 |
| AATAAACG | -0.164 ± 0.035 |
| CATGTGTA | 0.0692 ± 0.01 |
| AGGCCAAG | -0.289 ± 0.015 |
| AGGAGCAC | -0.301 ± 0.059 |
| AACAGGGA | -0.271 ± 0.009 |
| CGAATGCA | -0.0822 ± 0.032 |
| GTTTACAA | 0.104 ± 0.051 |
| CTCATTAC | -0.119 ± 0.0035 |
| TCCGCCAA | 0.00811 ± 0.035 |
| GGCATGCA | -0.0539 ± 0.017 |
| ACGGCCTC | -0.0312 ± 0.028 |
| ACTTGCTG | -0.0473 ± 0.073 |
| AACCCTAC | 0.0156 ± 0.011 |
| ATGGACCC | -0.185 ± 0.015 |
